Results from the supplement of paper PMC10126150.
Values marked as one replicate rest on one cluster of the flow cell; about a third of the high ones do not repeat.

Test system: ATP
Test: switch fluorescence ratio, 500 uM ATP over buffer (Cy3 cluster intensity, sum of 5 cycles each) (fold (ratio)); higher = stronger signal-on switching upon ATP binding; sequences stand for … in TCGTCGGCAGCGTCAGATGTGTATAAGAGACAGTTTTTTTTTTTTTTTTTTTTTTTTT…TC
Settings: aptamer strand: ATP DNA aptamer (quencher-CACCTGGGGGAGTATTGCGGAGGAAGG + anchor), 100 nM annealed; ATP concentration: 500 uM; one replicate
How it was run: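 Between each of five buffer/ATP cycles, the flow-cell was stripped with NaOH and re-annealed. Each cycle imaged Cy3-labelled switching-strand clusters, annealed to 100 nM quencher-labelled ATP aptamer on a modified Illumina MiSeq flow-cell, first in selection buffer and then after 15 min with 500 uM ATP at 22 °C. The fluorescence ratio is summed target-cycle over summed buffer-cycle Cy3 intensity per cluster, averaged per switch-domain sequence, with clusters outside 100-1000 RFU excluded.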
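Further: ATP exposure 15 min at 22 °C before imaging.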

Row | Sequence | switch fluorescence ratio
1 | ATGTTGTGTG | 0.994
2 | ATACACCGTT | 1.02
3 | CTTTGCTATT | 1.12
4 | AACAGCATCC | 1.11
5 | TTTTATTTAG | 0.964
6 | ATGGCCAGTT | 1.04
7 | GCTAGTGAGG | 1.01
8 | TCTGCACATG | 1.04
9 | GCATTTGCGA | 1.02
10 | GGGCGTGGCG | 0.966
11 | TAACATCGTG | 1
12 | TAGATAGGCA | 0.963
13 | AGGGAGAATG | 0.93
14 | TCGGAAAACA | 0.99
15 | ACTACGTTAT | 1.23
16 | ATCTATCGTA | 0.953
17 | TTGTTTCCGC | 3.58
18 | CTATGACGTC | 1.04
19 | CCGCCTTTCA | 1.04
20 | TAGGGTATTA | 1
21 | GCACGGGGCC | 1.01
22 | AATTTCGATG | 0.988
23 | CCTGAGTTGT | 0.996

Row | Sequence | switch fluorescence ratio
24 | GAGTGGGTCT | 0.973
25 | AACAATCGAC | 1.14
26 | AGTAGGCGGG | 0.952
27 | TTTAGCGCTA | 0.992
28 | AGTGCCGCCA | 1
29 | ATTATCTGAA | 1.02
30 | GAGTTATGGC | 0.975
31 | TATATTTCAA | 0.984
32 | ACTACTGCGA | 1.44
33 | TCAGACTCTC | 1.42
34 | AGACGAATA | 1.02
35 | AGAGAAGGTA | 0.965
36 | CGGATGGGCA | 1
37 | TGTCAGTTCG | 1.04
38 | GGGGGTTCAC | 1.02
39 | GCCATTCCGT | 1.06
40 | TTACAGCTGG | 0.983
41 | CGAAGTGCGC | 1.08
42 | TTATAAGTCT | 0.965
43 | TTTGCGTAGT | 0.994
44 | CTGCTGGGCT | 1.02
45 | GGCCAGGAAG | 1
46 | ACTCTCTAT | 1.02

Row | Sequence | switch fluorescence ratio
47 | CCGGATCCTC | 1.23
48 | AGTTTGGTGA | 1
49 | ATATATGGCA | 1.07
50 | GCAGGTTTTT | 1.02
51 | TTCGACTTTA | 0.993
52 | TATTCGTGGA | 0.997
53 | ATCGACTCCC | 1.8
54 | AGGCTACCGG | 1.01
55 | TAGACACTTA | 1.14
56 | CAGGGTTCCT | 1.04
57 | ACTTGATAAC | 1.02
58 | AGAGTATATC | 1.02
59 | TGCGATTCCG | 1.05
60 | GGAGTTCCTT | 1.03
61 | TGGCTACACA | 1.07
62 | ACTCGAGCG | 1.02
63 | GTGCTCATGA | 0.989
64 | TTATGATACT | 1.03
65 | CAACCCAATA | 1.96
66 | CAGGCCAACG | 1.03
67 | TATGTGAGAG | 0.998
68 | TCCTCGCTGT | 4.13
69 | TGGTGATCTA | 0.989

Row | Sequence | switch fluorescence ratio
70 | AGTTCAGCGG | 0.978
71 | ATCAATACGC | 1.42
72 | AACTCAAGGT | 1.04
73 | GAAACGTAGA | 1.06
74 | GATCGAGAAG | 1.01
75 | GGCATAGCCT | 1.03
76 | GTATGGTTAC | 0.969
77 | AACTCGATA | 1.01
78 | CGTCCAAACT | 1.11
79 | TGAAAACTCT | 1.02
80 | GTAGCGACGA | 1.16
81 | ATGAACCATT | 1.01
82 | CGCTTGTGTA | 1.02
83 | CTGCACCCCA | 1.43
84 | TAGGCTCAAT | 0.983
85 | TCATCCAATG | 1.02
86 | TTCAGGCAAA | 1.01
87 | CTGTTCTTGT | 0.974
88 | TAGTATGAGC | 1.03
89 | TGCGGTAGGC | 1.02
90 | TCTAATCCAC | 1.05
91 | GGATAGCCGT | 0.97
92 | CTCGTTAATC | 1.23

Row | Sequence | switch fluorescence ratio
93 | CATCTTCTGA | 1.02
94 | ACTAGCTTTA | 1.09
95 | TTCAATTGCA | 1.04
96 | TATTAAGCTT | 1.07
97 | TCATGCTGGG | 1.02
98 | GACATCACT | 1.34
99 | GCGATTGTA | 0.985
100 | GGTGATGCAT | 1.05
101 | ACATTGAGG | 1
102 | GAGGCGTATA | 1.02
103 | CCGGTTTTAC | 2.21
104 | ATGCCCGTAC | 1.03
105 | GGATAAGTGG | 1.03
106 | GGCGATAATC | 1.19
107 | TCTTTGATAA | 0.997
108 | TAGCGAAACA | 2.88
109 | TGCAGCGCTT | 1.01
110 | TTGAGCCCAA | 1.03
111 | GCCACTAGCC | 1.02
112 | AAGTTTTCTG | 1.06
113 | GCAGGCCCTA | 0.968
114 | GCAAAAACT | 3.37
115 | AGCGTGGCCT | 0.986

Row | Sequence | switch fluorescence ratio
116 | CGTGTTCTTA | 0.998
117 | TTATGGTCCC | 1.02
118 | CGGTACCTGG | 0.964
119 | AACTCTCTCC | 1.15
120 | GCGTTTACAC | 0.983
121 | TGTCCTTACG | 1.03
122 | TTGATTCCTG | 1.02
123 | GATGAGGTTT | 0.999
124 | GAATGAGTAC | 1.08
125 | TACAGAGAGA | 1
126 | GTGACAGTGT | 0.989
127 | GCAGTGCGCT | 1.03
128 | CCCAAAGAAT | 1.19
129 | TAAAAATCTG | 1.07
130 | GGGATCACCT | 1.01
131 | TCGTTTCAAA | 0.993
132 | CAGCAGTTGT | 0.994
133 | ATATGGGCAT | 1.01
134 | ATGTGGTCGG | 1.02
135 | ACGCTCCCCA | 1.95
136 | TCACCAGCGA | 1.62
137 | AATGTCCTA | 0.986
138 | TCTGCTCAGT | 1.03

Row | Sequence | switch fluorescence ratio
139 | TTACATTACT | 1.36
140 | GTGGACATGT | 0.928
141 | CTCGGCTCCG | 0.969
142 | CGGGCACACT | 1.07
143 | TTAGAAGGTC | 0.974
144 | ACATGTTGTC | 0.984
145 | TATAAGGGC | 1.02
146 | AGGTAGCACT | 1.03
147 | AATGAAAAG | 0.99
148 | CAGAAAGATT | 0.976
149 | TGACAACGAG | 1.03
150 | CAGGGTAAGT | 1.01
151 | CCTGGATAAG | 1.05
152 | AGAGAATCGA | 1.01
153 | GCTCTACTTA | 1.03
154 | GTGGTGCTAC | 1
155 | ATTGCACCAG | 1.04
156 | GGTCCTAACT | 1.06
157 | TTGAGAGTCA | 0.964
